The source gives no read counts; variants with many changes may rest on few reads.
B1: OR4K15 (parent)
chain: GUUAACGGUCAUAGGCCAUGGAAACUAGGAGCACCAUUUCGCUGCCAGUGAAGAAAUGAACAAAGAAAAUCUGGGCCAGGCAGGCAUCAAAAGAAAUAGUCUUGCGCUCAACCAGAAAGUCUGUAAUCAUUUUAAGGGUA

Variants of: B1
Assay: self-cleavage, relative activity (ratio to wild type); higher = more cleavage; in vitro, sequencing; the parent is a self-cleaving ribozyme

Q: For GUUAACGGUCAUAGGCCAUGGAAACUAGGAGCACCAUCUCGCUGCCAGUGAAGAAAUGAACAAAGAAAAUCUGGGCCAGGCAGGCAUCAUAAGAAAUAGUCUUGCGCUCAACCAGAAAGUCUGUAAUCAUCUUAAGGGUA [U38C A90U U131C], which self-cleavage is on record?
A: 2.96

Q: Which self-cleavage does the source give for GUUAACGGUCAUAGGCCAUGGAAACUAGGAGCACCAUCUCGCUGCCAGUGAAGAAAUGAACAAAGAAAAUCUGGGCCAGGCAGGCAUCAAAAGAAAUAGUCUUGCGCUCACCCAGAAAGUCUGCAAUCAUCUUAAGGGUA [U38C A111C U124C U131C] here?
A: 0

Q: With GUUAACGGUCAUAGGCCAUGGAAACUAGGAGCACCAUCUCGCUGCCAGUGAAGAAAUGAACAAAGAAAAUCUGGGCCAGGCAGGCAUCAAGAGAAAUAGACUUGCGCUCAACCAGAAAGUCCGUAAUCAUUUUAAGGGUA [U38C A91G U100A U122C] as the variant, how does the self-cleavage read?
A: 0.32

Q: With GUUAACGGUCAUAGGCCAUGGAAACUAGGAGCACCAUCUCGCUGCCAGUGAAGAAAUGAACAAAGAAAAUCUGGGCCAGGCAGGCAUCAAAAGAAGUAGUCUUGCGCUCAACCAGAAAGUCUGUAAUCAUUUUAGGGGUA [U38C A96G A135G] as the variant, how does the self-cleavage read?
A: 2.04

Q: With GUUAACGGUCAUAGGCCAUGGAAACUAGGAGCACCAUCUCGCUGCCAGUGAAGAAAUGAACAAAGAGAAUCUGGGCCAGGCAGGCAUCAAAAGAAAUAGUCUAGCGCUCAACCAGAAAGACUGUAAUCAUUUUAAGGGUA [U38C A67G U103A U120A] as the variant, how does the self-cleavage read?
A: 0.7

Q: For GUUAACGGUCAUAGGCCAUGGAAACUAGGAGCACCAUCUCGCUGCCAGUGAAGAAAUGAACAAAGAAAAUCUGGGCCAGGCAGGCAUCAAAAGGAAUAGUCUUGCGCUCAGCCAGAGAGUCUGUAAUCAUUUUAAGGGUA [U38C A94G A111G A117G], which self-cleavage is on record?
A: 0.01

Q: Which self-cleavage does the source give for GUUAACGGUCAUAGGCCAUGGAAACUAGGAGCACCAUCUCGCUGCCAGUGAAGAAAUGAACAAAGAAAAUCUGGGCCCGGCAGGCAUCAAAAGAAAUAGUCCUGCGCUCAACCAGAAAGUCUGUAAUCAUCUUAAGGGUA [U38C A78C U102C U131C] here?
A: 0.45

Q: With GUUAACGGUCAUAGGCCAUGGAAACUAGGAGCACCAUCUCGCUGCCAGUGAAGAAAUGAACAAAGAAAAUCUGGGCCAGGCAGGCAUCGAAAGAAAUAGUCUUGCGCUCAACCUGAAAGUCUGUAGUCAUUUUAAGGGUA [U38C A89G A114U A126G] as the variant, how does the self-cleavage read?
A: 0.04

Q: For GUUAACGGUCAUAGGCCAUGGAAACUAGGAGCACCAUCUCGCUGCCAGUGAAGAAAUGAACAAAGAAGAUCUGGGCCAGGCAGGCAUCAAAGGAAAUAGUCUUGCGCUCGACCAGAAAGUCUGUAAUCAUUUUAAGGGUA [U38C A68G A92G A110G], which self-cleavage is on record?
A: 0.62

Q: For GUUAACGGUCAUAGGCCAUGGAAACUAGGAGCACCAUCUCGCUGCCAGUGAAGAAAUGAACAAAGAAAAUCUGGGCCAGGCAGGCAUCAAAGGAAAUAGUAUUGCGCUCAACCAGAAAGUCUGUAAUCAUUUUAAGGGUA [U38C A92G C101A], which self-cleavage is on record?
A: 0.18

Q: For GUUAACGGUCAUAGGCCAUGGAAACUAGGAGCACCAUCUCGCUGCCAGUGAAGAAAUGAACAAAGAAAAUCUGGGCCUGGCAGGCUUCAAAAGAAAUAGCCUUGCGCUCAACCAGAAAGUCUGUAAUCAUUUUAAGGGUA [U38C A78U A86U U100C], which self-cleavage is on record?
A: 1.45

Q: For GUUAACGGUCAUAGGCCAUGGAAACUAGGAGCACCAUCUCGCUGCCAGUGAAGAAAUGAACAAAGAAAAUCUGGGCCAGGCAGGCAUCAAAAGGAAUAGUCUUGCGCUCAACCAGAAAGUUUGCAAUCAUUUUAAGGGUA [U38C A94G C121U U124C], which self-cleavage is on record?
A: 0.26

Q: For GUUAACGGUCAUAGGCCAUGGAAACUAGGAGCACCAUCUCGCUGCCAGUGAAGAAAUGAACAAAGAAAAUCUGGGCCAGGCAGGCAUCAAAUAAAAUAGUCUUGCGCUCAACCAGAAAGUCUGUGAUCAUUUUAAGGGUA [U38C A92U G93A A125G], which self-cleavage is on record?
A: 0.83

Q: For GUUAACGGUCAUAGGCCAUGGAAACUAGGAGCACCAUCUCGCUGCCAGUGAAGAAAUGAACAAAGAAAAUCUGGGCCCGGCAGGCAUCAAAAGAAAUAGUCCUGCGCUCAACCAGAAAGUCUGUAAUCAUUUUAAGGGUA [U38C A78C U102C], which self-cleavage is on record?
A: 0.56

Q: Which self-cleavage does the source give for GUUAACGGUCAUAGGCCAUGGAAACUAGGAGCACCAUCUCGCUGCCAGUGAAGAAAUGAACAAAGAAAAUCUGGGCCAGGCAGGCAUCAGAAGAAAUAGUCUUGCGCUCGACCAGAAAGUCUGUAAUCAUUUUAAGGGUA [U38C A90G A110G] here?
A: 0.38

Q: Which self-cleavage does the source give for GUUAACGGUCAUAGGCCAUGGAAACUAGGAGCACCAUCUCGCUGCCAGUGAAGAAAUGAACAAAGAAAAUCUGGGCCAGGCAGGCAUCAAUAGAAAUAGUCUUGCGCUCAACCAGAAAGUCUGUAGUCAUUUUAAGGGUA [U38C A91U A126G] here?
A: 0.89

Q: For GUUAACGGUCAUAGGCCAUGGAAACUAGGAGCACCAUCUCGCUGCCAGUGAAGAAAUGAACAAAGAAAAUCUGGGCCGGGCAGGCAUCAAAAGAAAUAGUCUUGCGCUCAACCAGAAAGUCCGCAAUCAUUUUAAGGGUA [U38C A78G U122C U124C], which self-cleavage is on record?
A: 0.08

Q: With GUUAACGGUCAUAGGCCAUGGAAACUAGGAGCACCAUCUCGCUGCCAGUGAAGAAAUGAACAAAGAAGAUCUGGGCCUGGCAGGCAUCAAAAGGAGUAGUCUUGCGCUCAACCAGAAAGUCUGUAAUCAUUUUAAGGGUA [U38C A68G A78U A94G A96G] as the variant, how does the self-cleavage read?
A: 0.58

Q: For GUUAACGGUCAUAGGCCAUGGAAACUAGGAGCACCAUCUCGCUGCCAGUGAAGAAAUGAACAAAGAAAAUCUGGGCCAGGCAGGCAUCAAAAGAAAUAGUCUUGCGCUCAACCGGAAAGUCUGUGAUCAUUUUAAGGGUA [U38C A114G A125G], which self-cleavage is on record?
A: 0.09

Q: Which self-cleavage does the source give for GUUAACGGUCAUAGGCCAUGGAAACUAGGAGCACCAUCUCGCUGCCAGUGAAGAAAUGAACAAAGAAAAUCUGGGCCGGGCAGGCAUCAAAAGGAAUAGUCUUGCGCUCAACCAGAAAGUCUGUAAUCAUCUUAAGGGUA [U38C A78G A94G U131C] here?
A: 0.23

Q: Which self-cleavage does the source give for GUUAACGGUCAUAGGCCAUGGAAACUAGGAGCACCAUCUCGCUGCCAGUGAAGAAAUGAACAAAGAAAAUCUGGGCCAGGCGGGCUUCAAAAGAAGUAGUCUUGCGCUCAACCAGAAAGUCUGUAAUCAUUUUAAGGGAA [U38C A82G A86U A96G U139A] here?
A: 0.6

Source: the RNAGym collection of RNA variant scans (doi:10.7554/elife.90254)
